Some of the results follow.

This test addresses T1, OsWOX13 (Oryza sativa, UniProt Q5QMM3 1-267).
T1 sequence: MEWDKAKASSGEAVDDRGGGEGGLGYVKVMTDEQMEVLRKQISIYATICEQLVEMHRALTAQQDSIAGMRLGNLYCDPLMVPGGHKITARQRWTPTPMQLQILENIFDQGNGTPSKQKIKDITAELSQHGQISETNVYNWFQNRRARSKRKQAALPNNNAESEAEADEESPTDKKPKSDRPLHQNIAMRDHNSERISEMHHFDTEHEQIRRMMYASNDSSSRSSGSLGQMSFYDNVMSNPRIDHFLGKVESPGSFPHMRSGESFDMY
Nature of the test: protein-binding microarray (RPBM); PBS, 2% BSA, 51.3 ng/ul salmon testes DNA, 50 uM zinc acetate, 200 nM TF, 25 C, 1 h; high values mean tight binding. Conditions: protein: recombinant; tags: N-terminal polyhistidine and DsRed monomer fusion (pET32a); label: CyDye5-dUTP incorporated in the synthesized complementary strand; 3' TTTTT single-stranded linker to array surface; dsDNA, one strand shown. An outline of the steps: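 For the binding signal, per-feature fluorescence intensity was read in arbitrary units on an Axon 4000B scanner. Before scanning, a 2% BSA-blocked custom Agilent array made double-stranded with Cy5-dUTP was washed after 1 h at 25 °C with 200 nM protein and 50 µM zinc acetate. The proteins were Ni–NTA-purified transcription factors with N-terminal polyhistidine and DsRed fusions, expressed in E. coli BL21-CodonPlus.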
In the case of “AGTAATGATTTCTTCTTTTAAGATGCTCTTTGCCATGCTACGGAGTCACCTAGTGCAG”, the binding signal was 11100 fluorescence intensity (a.u.).
Consider “TTGATAGATCAGCCATCGTCGCCGGGCCGAAAGTTAGCCGCGGAGTCACCTAGTGCAG”, for which the binding signal is 4030 fluorescence intensity (a.u.).
The result for “CACGTAATTTCTTTGCATGCTTGCAAGCGACCAAGGAGGGCGGAGTCACCTAGTGCAG” reads 4810 fluorescence intensity (a.u.).
For the sequence “TCTTGATTTGTGGGCATTTTGCAGGGAATGTTCCATTTGCCGGAGTCACCTAGTGCAG”, the binding signal is 24700 fluorescence intensity (a.u.).
As to “ACTTTTGGTTTGATTGAATATGGTATCCAGCAAACAAGCTCGGAGTCACCTAGTGCAG”, the binding signal was 39600 fluorescence intensity (a.u.).
In the case of “ATACCATCACCGTTAAAATTCCGTCTATTCTACGCTGTTACGGAGTCACCTAGTGCAG” it was 5490 fluorescence intensity (a.u.); in that of “AATATAGTTGATTGGTCATCAATGAAGCCAAACGTATAATCGGAGTCACCTAGTGCAG”, 30500 fluorescence intensity (a.u.).
“AAAACAAATTTGCACGATCACTCAAGTAATACTTTATCATCGGAGTCACCTAGTGCAG”: the binding signal was 11500 fluorescence intensity (a.u.).
In the case of “AACCCTAGATTGATTTTGCGTGTGCTGCGTGAAGACGGCACGGAGTCACCTAGTGCAG” it was 41400 fluorescence intensity (a.u.); in that of “TATGGTGGTAATTGATGAAGCTGCTCAGGCTAGTGAAGTACGGAGTCACCTAGTGCAG”, 35100 fluorescence intensity (a.u.); in that of “CTAATAAATTTTAGCTTAAAATATAACTTTTATAAAAGAGCGGAGTCACCTAGTGCAG”, 3160 fluorescence intensity (a.u.).
Regarding “AATGATTTGTATTATGGTTGGAGTTTCTGCTGCTACTGTCCGGAGTCACCTAGTGCAG”, the binding signal was 40300 fluorescence intensity (a.u.).
For the sequence “TCTAAATGATTGTTATTTTCTTTCCTATTGTAAAGTTCAACGGAGTCACCTAGTGCAG”, the binding signal was 18900 fluorescence intensity (a.u.).
The result for “TGTCACAGGTAAATCACTGCAATTAGCGAGTCATGGCTCACGGAGTCACCTAGTGCAG” reads 8530 fluorescence intensity (a.u.); that for “CATTAATTAGATTGAGACAGTACTGAGATGATTGCCGCCCCGGAGTCACCTAGTGCAG”, 65200 fluorescence intensity (a.u.).
In the case of “ATAGATTAGGGTTGGGGACTCGCGGCTGGGTGGCTGGGCGCGGAGTCACCTAGTGCAG” it was 3550 fluorescence intensity (a.u.); in that of “GTTTAAATCAGTTGGAATTTCAAGTTTCAAGTTTCTAGTCCGGAGTCACCTAGTGCAG”, 3910 fluorescence intensity (a.u.).
For “GCAGGATGTGATTAGCTGAAAAGAAAAGCAAAACGCACAACGGAGTCACCTAGTGCAG”, the binding signal is 6430 fluorescence intensity (a.u.).
The result for “GCATAATTGGCCTCGTTTAATTCATAATAGGCTTCTTAATCGGAGTCACCTAGTGCAG” reads 29300 fluorescence intensity (a.u.); that for “TGTCGTATGATCTAAGACATTGATTATCATCGAACGGCAGCGGAGTCACCTAGTGCAG”, 4880 fluorescence intensity (a.u.).
In the case of “TCTAATTGAGCTTCCTAAATATTATATTGGTGGCAAAGTTCGGAGTCACCTAGTGCAG” it was 27800 fluorescence intensity (a.u.); in that of “TAGATTAATTATGCATCCTCCGTTCCTCCAGCCGATCGATCGGAGTCACCTAGTGCAG”, 16600 fluorescence intensity (a.u.).
Turning to “TCGTCAGGTTAATCAAGGGAGGATTGAACGAGATTTCGTGCGGAGTCACCTAGTGCAG”, the binding signal was 5920 fluorescence intensity (a.u.).
With “CAATGTAATTACACTGTAGTTACATTGTAATTACATTGTACGGAGTCACCTAGTGCAG”, the binding signal is 15600 fluorescence intensity (a.u.).
With “ACTTTTCAGTCACATCATCTTTAATTTCAACCAAAATCCACGGAGTCACCTAGTGCAG”, the binding signal was 4420 fluorescence intensity (a.u.).
In the case of “GTTCTTAATTTAAGCCTCAACTTGATCCATAACTAAGATGCGGAGTCACCTAGTGCAG” it was 5070 fluorescence intensity (a.u.); in that of “GGTGGGTAGGGTTAATTTTGGTTGGAGGTAGAGAGAGAGACGGAGTCACCTAGTGCAG”, 10300 fluorescence intensity (a.u.).
Take “TTAGCTAAAACTTAATTAATGACGCACTAAAACGCTGCTTCGGAGTCACCTAGTGCAG”: the binding signal was 4390 fluorescence intensity (a.u.).
Consider “GGAATCTCCAATCAAGGTGAATTAAAAGGAAGGTATATTTCGGAGTCACCTAGTGCAG”, for which the binding signal is 14000 fluorescence intensity (a.u.).
In the case of “TGTGCGGGTGATTTGTTATAACGACGCGTGTGGTGGGGCACGGAGTCACCTAGTGCAG” it was 9030 fluorescence intensity (a.u.); in that of “CTTCAATCTAAACACAATTTTACCTTTGCCAAAATTAGCCCGGAGTCACCTAGTGCAG”, 10800 fluorescence intensity (a.u.); in that of “TCTAATTGGGAAAAGAATGCAAGCTATGAGAGAAGGTGAACGGAGTCACCTAGTGCAG”, 21100 fluorescence intensity (a.u.).
The result for “ATTCTGATAAATTTCAACTAGAATATTTGACATGGAGATTCGGAGTCACCTAGTGCAG” reads 3920 fluorescence intensity (a.u.); that for “TCAAAATTAGTTCTGTTCCACACCATGCAGTTATGCCAAGCGGAGTCACCTAGTGCAG”, 4260 fluorescence intensity (a.u.).
The result for “GTGACATTCACTGACTGGTGCGCGTGTGTTTTGTTTGCGTCGGAGTCACCTAGTGCAG” reads 6530 fluorescence intensity (a.u.); that for “TACACATATTTCAATTAATCTTTATTTATTGTTTATTAATCGGAGTCACCTAGTGCAG”, 8270 fluorescence intensity (a.u.); that for “AAATTGATGATGGATGATATGAATATGCATGTCCCCATCACGGAGTCACCTAGTGCAG”, 37300 fluorescence intensity (a.u.).
As for “CACATGTAATAATGACGATTTAATTAGGCTCAAAAGATTTCGGAGTCACCTAGTGCAG”, the binding signal is 3740 fluorescence intensity (a.u.).
The result for “AATATAATAGAGTAACTTTCCTATTATGTATTGGATAGACCGGAGTCACCTAGTGCAG” reads 3720 fluorescence intensity (a.u.).
As for “CCATCCAACCAATTAATTTAATTTAATAATAATAAATCTGCGGAGTCACCTAGTGCAG”, the binding signal was 13700 fluorescence intensity (a.u.).
Turning to “GATTTAATTAATCCATTCCCCTTCTGGCATGCCGCTAGAACGGAGTCACCTAGTGCAG”, the binding signal is 16300 fluorescence intensity (a.u.).
The result for “TTCCCAATATTAATTTGTCCGTTATGATTTCTGTTGCGTTCGGAGTCACCTAGTGCAG” reads 17300 fluorescence intensity (a.u.).

(Values after publication PMC7819943, “Rice protein-binding microarrays: a tool to detect cis-acting elements near promoter regions in rice”.)
